# About 14,000 (4.5%) of roughly 310,000 compounds showed an effect of 50% or more. Effects have a minus sign here. The list shows a part of the results.
# Target: human ether-à-go-go-related gene (hERG) potassium channel (human, UniProt Q12809)
# Assay: primary screen, population patch clamp on CHO cells stably expressing hERG
# 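Also: peak tail current of the secondary pulse compared with the same well before compound.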
# human ether-à-go-go-related gene (hERG) potassium channel, sequence (Q12809 whole entry, looked up): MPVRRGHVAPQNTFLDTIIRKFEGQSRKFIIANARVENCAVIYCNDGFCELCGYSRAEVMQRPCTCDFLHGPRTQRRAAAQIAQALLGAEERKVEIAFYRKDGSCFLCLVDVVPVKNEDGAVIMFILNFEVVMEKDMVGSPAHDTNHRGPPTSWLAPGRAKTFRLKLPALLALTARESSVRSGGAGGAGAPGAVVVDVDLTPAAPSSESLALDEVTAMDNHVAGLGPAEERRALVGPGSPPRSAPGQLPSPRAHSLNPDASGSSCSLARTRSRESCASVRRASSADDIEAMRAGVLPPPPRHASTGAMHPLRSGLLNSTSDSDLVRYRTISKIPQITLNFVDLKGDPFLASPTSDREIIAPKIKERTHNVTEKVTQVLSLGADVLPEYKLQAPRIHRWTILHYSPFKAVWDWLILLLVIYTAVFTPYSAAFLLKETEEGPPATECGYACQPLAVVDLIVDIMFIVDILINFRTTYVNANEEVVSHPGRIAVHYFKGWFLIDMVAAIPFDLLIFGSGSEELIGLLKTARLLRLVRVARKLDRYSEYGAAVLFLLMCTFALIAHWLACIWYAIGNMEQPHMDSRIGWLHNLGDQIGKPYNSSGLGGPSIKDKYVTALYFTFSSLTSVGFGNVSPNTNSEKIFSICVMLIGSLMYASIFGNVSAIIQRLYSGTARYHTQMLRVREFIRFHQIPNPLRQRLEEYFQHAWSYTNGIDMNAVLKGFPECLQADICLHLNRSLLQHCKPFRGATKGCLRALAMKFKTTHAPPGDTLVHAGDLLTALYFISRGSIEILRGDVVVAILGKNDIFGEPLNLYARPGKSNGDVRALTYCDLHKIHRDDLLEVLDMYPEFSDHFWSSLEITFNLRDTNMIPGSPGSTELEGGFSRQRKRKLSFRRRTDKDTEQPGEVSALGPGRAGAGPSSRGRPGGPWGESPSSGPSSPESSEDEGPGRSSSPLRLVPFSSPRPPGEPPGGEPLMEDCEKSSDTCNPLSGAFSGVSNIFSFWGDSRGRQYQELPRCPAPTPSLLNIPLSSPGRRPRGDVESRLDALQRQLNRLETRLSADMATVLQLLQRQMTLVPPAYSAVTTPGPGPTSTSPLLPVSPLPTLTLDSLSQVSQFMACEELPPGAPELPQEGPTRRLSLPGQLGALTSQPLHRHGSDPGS
row,SMILES,"hERG current change (%, negative = inhibition) at 10uM"
1,O=C(NC(=S)NCCO)c1sc2ccccc2c1Cl,-0.142%
2,CCC(=O)N(CC)Cc1cc(=O)[nH]c2ccccc12,1.27%
3,Cc1ccccc1CC1(CO)CCCN(C(=O)CCN2CCCO2)C1 (centres unmarked),9.14%
4,O=C(COC(=O)c1cccc(-n2cnnn2)c1)c1ccc(Br)cc1,9.98%
5,COCc1cc(C)nc2sc3c(=O)oc(C)nc3c12,-11.1%
6,Cn1cc(CCC(=O)N2CCCC(CCC(=O)NCc3ccccc3F)C2)cn1 (centres unmarked),3.97%
7,CCOc1cc(C(=O)Nc2cccnc2)cc(OCC)c1OCC,10.1%
8,C=CCn1c(O)c(N=O)c2ccccc21,12.3%
9,CCOC(=O)C(NC(=O)c1ccccc1)=C1C=C(C)OC(C)=C1,14.5%
10,COc1cc(CNc2ccc(N3CCCC3)cc2)cc(Cl)c1OC,9.98%
11,Cc1nc([N+](=O)[O-])cn1CC(O)c1ccc(-c2ccccc2)cc1 (centres unmarked),-44.3%
12,N/C(=N\OC(=O)c1ccco1)c1ccccc1,2.21%
13,Cc1ccc(NC(=O)c2cc(-c3ccccc3)nn2-c2ccccc2)c(Br)c1,-3.82%
14,Cc1ccc(S(=O)(=O)CCC(=O)Nc2cccc([N+](=O)[O-])c2)cc1,-24.3%
15,Cc1cc(C)c(-c2noc(C(=O)OC(C)(C)C)c2C(=O)OC(C)(C)C)c(C)c1,6.28%
16,Cc1ccc(CNC(=O)C2(NC(=O)Nc3ccc(C)cc3)CCCCC2)cc1,10.6%
17,Cc1cc(C)cc(NC(=O)c2cc(Cl)sc2Cl)c1,8.61%
18,CC1CCCN(C(=O)C(C)Sc2nc(-c3ccccc3)cc(C(F)(F)F)n2)C1 (centres unmarked),7.42%
19,O=C(Nc1ccc2cn[nH]c2c1)c1ccccc1F,6.91%

row,SMILES,"hERG current change (%, negative = inhibition) at 10uM"
1,CCOCCn1c(CN2CCN(c3ccccc3)CC2)nc2c1c(=O)n(C)c(=O)n2C,-22.1%
2,O=C(NCC(=O)N1CCN(C(c2ccccc2)c2ccccc2)CC1)c1ccccc1F,-0.366%
3,CC1(C)c2ccccc2-n2c1cc1oc(=O)cc(O)c1c2=O,8.01%
4,NC(=O)c1nn(CC(=O)Nc2ccc3c(c2)OCO3)cc1[N+](=O)[O-],19.6%
5,O=[N+]([O-])c1cc(Cl)cc2c1nc(NCCO)c1ccccc12,21.7%
6,CC(C)CNc1oc(-c2ccco2)nc1C#N,-15.3%
7,O=C(O)CCNC(=O)COc1ccc2c3c(c(=O)oc2c1)CCCC3,15.2%
8,O=C(Nc1ccccc1)c1ccccc1Oc1ccc(C(F)(F)F)cc1[N+](=O)[O-],9.75%
9,CCOC(=O)CSc1nc2cc(S(=O)(=O)N3CCOCC3)ccc2n1CC,-26.2%
10,CCC(=O)N1CCN(c2ccc(NC(=O)c3cccs3)cc2)CC1,-0.84%
11,CCn1c(C)c(C(C)=O)c(N2CCN(c3ccc(F)cc3)CC2)nc1=S,-37.8%
12,Cc1nc2ccccc2c(=O)n1NC(=O)Nc1ccccc1,-8.45%
13,Cc1ccccc1Cn1ccc(NC(=O)c2nn(C)cc2[N+](=O)[O-])n1,-1.2%
14,O=C(NCc1cc(C(F)(F)F)cc(C(F)(F)F)c1)C1CC(c2c(Cl)cccc2Cl)=NO1 (centres unmarked),12.9%
15,C[C@@H](NC(=O)c1cc2c([nH]c3ccccc32)c(-c2ccccc2)n1)C(=O)O,10.3%
16,COc1ccc(C(=O)N/C(=C\c2ccco2)C(=O)NCc2cccnc2)cc1,-66.7%
17,Cc1ccc(C(=O)CCC(=O)Nc2ncccc2O)cc1,17.1%
18,Cc1ccc(N2CC(C(N)=O)CC2=O)cc1C (centres unmarked),-3.71%
19,CCOC(=O)C1CCCN(C(=O)Cn2ncc3c([nH]c4ccccc43)c2=O)C1 (centres unmarked),-27.8%

row,SMILES,"hERG current change (%, negative = inhibition) at 10uM"
1,COc1ccc([C@H]2CC(=O)C=C(c3cccc(C#N)c3)C2)cc1,-72.3%
2,Cc1ccn2cc(-c3nonc3C)cc2c1,-16.9%
3,Cc1ccc(N2CC(=O)N(c3ccc(C)cc3)CC2=O)cc1,13.3%
4,OC(CN1CCN(c2ncc(C(F)(F)F)cc2Cl)CC1)c1ccccc1 (centres unmarked),-58%
5,Cc1ccc(S(=O)(=O)NC2c3cccc4cccc(c34)C2Sc2n[nH]c(N)n2)cc1 (centres unmarked),-9.13%
6,Cc1ccc(Cn2ccnc2SCC(=O)NC2CCCC2)cc1,-3.74%
7,CCCCCc1ccc(-c2ccc(C(=O)O)cc2)nc1,-5.62%
8,CC(=O)c1sc(NC(=O)c2ccc(Cn3cc(Br)cn3)o2)nc1C,-17.8%
9,CC(C)(C)c1ccc(S(=O)(=O)N2CCN(C(=O)C3CCC3)CC2)cc1,-3.35%
10,COc1ccccc1NC(=O)C1CCCN(S(=O)(=O)c2ccc3c(c2)CC(C)N3C(C)=O)C1 (centres unmarked),11.1%
11,COc1ccc(-n2nnnc2CNC(=O)C(=O)c2c(C)[nH]c3ccccc23)cc1,-0.965%
12,O=S(=O)(c1ccccc1)c1nnn2c1nc(NC1CCN(Cc3ccccc3)CC1)c1ccccc12,-8.78%
13,COC(=O)C1=C(C(=O)OC)SC(=C2C(=S)C(C)(C)N(C(=O)C(C)C)c3ccccc32)S1,1.27%
14,O=C1c2ccc([N+](=O)[O-])cc2C(=O)N1Cc1cccnc1,19.6%
15,CCOC(=O)c1nccnc1C(=O)Nc1ccc(C(F)(F)F)cc1,-3.36%
16,O=C(NCCc1ccccc1)C(=O)NCC(c1ccco1)N1CCOCC1 (centres unmarked),23.8%
17,Cc1ccc(Cl)cc1NC(=O)CCS(=O)(=O)c1cccc2nonc12,12.9%
18,Cc1noc(NS(=O)(=O)c2ccc(NC(=O)CS(=O)(=O)c3ccccc3)cc2)c1C,4.63%

# From article PMC4336329 (PLoS ONE, 2015)
